Test results taken from PMC4336329 (PLoS ONE, 2015).
Among all 310,000 compounds or so, about 2,200 (0.71%) showed an effect of 50% or more. Effects have a minus sign here. The list shows a part of the results.

The compounds below were run against human ether-à-go-go-related gene (hERG) potassium channel (human, UniProt Q12809) (assay: primary screen, population patch clamp on CHO cells stably expressing hERG).
Chain of human ether-à-go-go-related gene (hERG) potassium channel (Q12809 whole entry, looked up): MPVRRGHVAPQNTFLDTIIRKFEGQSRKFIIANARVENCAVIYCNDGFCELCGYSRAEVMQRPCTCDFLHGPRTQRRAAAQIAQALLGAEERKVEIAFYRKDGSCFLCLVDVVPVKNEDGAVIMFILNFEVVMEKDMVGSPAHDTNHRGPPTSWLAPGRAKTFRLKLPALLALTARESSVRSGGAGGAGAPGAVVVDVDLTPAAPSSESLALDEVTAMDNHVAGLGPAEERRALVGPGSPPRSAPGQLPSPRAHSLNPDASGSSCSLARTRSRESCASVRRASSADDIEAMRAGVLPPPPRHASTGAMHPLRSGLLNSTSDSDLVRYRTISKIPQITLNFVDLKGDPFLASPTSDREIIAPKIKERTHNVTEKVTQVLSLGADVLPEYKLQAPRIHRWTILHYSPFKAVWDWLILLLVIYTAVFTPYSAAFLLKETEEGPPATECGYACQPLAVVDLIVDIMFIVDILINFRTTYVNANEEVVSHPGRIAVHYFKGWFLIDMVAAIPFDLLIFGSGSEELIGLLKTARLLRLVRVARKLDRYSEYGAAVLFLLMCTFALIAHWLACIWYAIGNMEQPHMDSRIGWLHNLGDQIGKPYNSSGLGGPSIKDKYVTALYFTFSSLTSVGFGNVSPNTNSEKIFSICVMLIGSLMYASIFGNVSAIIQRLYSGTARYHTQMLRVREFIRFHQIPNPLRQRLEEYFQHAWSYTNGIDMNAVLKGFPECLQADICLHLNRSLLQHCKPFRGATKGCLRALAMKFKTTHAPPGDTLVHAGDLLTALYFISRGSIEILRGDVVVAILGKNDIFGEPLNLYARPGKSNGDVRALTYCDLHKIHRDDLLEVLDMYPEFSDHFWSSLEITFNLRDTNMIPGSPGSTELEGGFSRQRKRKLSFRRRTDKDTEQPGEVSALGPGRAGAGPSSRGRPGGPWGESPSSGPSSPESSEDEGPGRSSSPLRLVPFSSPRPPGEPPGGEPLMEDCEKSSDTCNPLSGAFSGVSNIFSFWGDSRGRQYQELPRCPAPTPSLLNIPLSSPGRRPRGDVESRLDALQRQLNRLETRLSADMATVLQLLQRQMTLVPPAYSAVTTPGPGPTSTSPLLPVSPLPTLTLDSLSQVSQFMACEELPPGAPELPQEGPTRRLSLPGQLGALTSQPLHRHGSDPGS

In order of falling “hERG current change (%, negative = inhibition) at 1uM” value:
1. CCOc1ccccc1NC(=O)C(OC(=O)c1ccccc1)c1ccccc1 (stereo not drawn)  32.8%
2. CN(C)c1nc(N)nc(Cn2nnc(-c3ccc(C(F)(F)F)cc3)n2)n1  22.3%
3. Cn1c2c(c(=O)n(C)c1=O)C(C(F)(F)F)(C(F)(F)F)N=C(c1ccccc1Cl)N2  19.5%
4. O=C(CSc1n[nH]c(-c2cccs2)n1)N1CCN(S(=O)(=O)c2ccccc2)CC1  18.2%
5. CC(C)C(=O)Nc1ncc(C(F)(F)F)cc1Cl  17.7%
6. Cc1nc(NC(=O)C2CC2)sc1C(=O)Nc1ccccc1Cl  17.5%
7. CCOc1ccc(-c2nnn(CC(=O)NCc3ccccc3)n2)cc1  17.5%
8. COc1ccc(Br)cc1CN1CCN(C(=O)c2ccc(F)cc2)CC1.O=C(O)C(=O)O  17.2%
9. O=C(NC(=S)Nc1ccc(Br)cn1)c1cccnc1  17.1%
10. CCOc1cc(C(c2c(C)[nH][nH]c2=O)c2c(C)[nH][nH]c2=O)ccc1OS(=O)(=O)c1ccc(C)cc1  15.5%
11. COc1cc(/C=C(\C#N)C(=O)Nc2cc(C(F)(F)F)ccc2Cl)ccc1OCC(=O)Nc1cccc(C(F)(F)F)c1  15.3%
12. CCOC(=O)C1CCCN(C(=O)c2cccc3ccccc23)C1 (stereo not drawn)  15.2%
13. COCC(=O)Oc1c(S(=O)(=O)c2ccc(C)cc2)c(C)nn1C(C)(C)C  14.8%
14. COc1ccc(NC(=O)NC(C)(C(F)(F)F)C(F)(F)F)cc1  14.6%
15. O=C(Nc1ncc(C(F)(F)F)cc1Cl)C1COc2ccccc2O1 (stereo not drawn)  14.5%
16. Cc1cc(C)cc(-n2c(C)nc3cc(C(=O)O)ccc32)c1  14.4%
17. CCOc1ccccc1NC(=O)COc1ccc2c(c1)OCO2  14.1%
18. Cc1cc(C)nc(-n2nc(C)cc2NC(=O)c2ccc(S(=O)(=O)N3CCOCC3)cc2)n1  13.6%
19. COc1ccccc1NC(=O)NCCCl  13.5%
20. CCn1c(CC(=O)Nc2ccc(F)cc2)nnc1SCC(=O)Nc1nnc(C)s1  13.4%
21. Cc1ccccc1NC(=O)C1CCN(S(=O)(=O)c2cccc3nonc23)CC1  13.2%
22. CN(C)/N=C/c1c(O)ccc2ccccc12  13%
23. CCn1c(SCC(=O)N2CCN(C)CC2)nc2c1c(=O)n(C)c(=O)n2C  13%
24. COc1ccc(C(=O)O)cc1NC(=S)NC(=O)Cc1ccc(Cl)cc1  12.9%
25. Cc1ccc(S(=O)(=O)N(C)C)cc1NS(=O)(=O)c1ccc(Cl)s1  12.8%
26. Cc1ccc(N2C(=O)c3ccc(C(=O)O)cc3C2=O)c(C)c1  12.7%
27. Cc1cc(NS(=O)(=O)c2ccc(NC(=O)c3ccco3)cc2)nc(C)n1  12.6%
28. CCOCCCNC(=O)c1ccccc1NC(=O)C1=C(C)OCCS1  12.6%
29. COc1ccc(CSc2nc(C)[nH]c2[N+](=O)[O-])cc1[N+](=O)[O-]  12.3%
30. Cl.O=C1CC[C@@]2(O)[C@H]3Cc4ccc(O)c5c4[C@@]2(CCN3CC2CC2)[C@H]1O5  12.3%
31. Cc1ccc(C(C(=O)NC(C)(C)C)N(CC2CCCO2)C(=O)CCC(=O)Nc2ccccn2)cc1 (stereo not drawn)  12.2%
32. COCCN(CCOC)S(=O)(=O)c1ccc(NC(=O)c2cnccn2)cc1  12.1%
33. Cc1ccc2[nH]c(C(=O)N/N=C/c3ccccc3O)c(C)c2c1  11.3%
34. CSc1ccccc1NC(=O)CN(C)C(=O)c1cccc(S(=O)(=O)N(C)C)c1  11.2%
35. O=C(COC(=O)Cc1ccc(Cl)cc1Cl)Nc1ccc(OC(F)F)cc1  10.8%
36. COP(=O)(CN(Cc1ccccc1)C(=S)Nc1c(C)cccc1C)OC  10.7%
37. Cc1cccc(C(=O)NCC(=O)OCc2nnc(-c3ccccc3)o2)c1  10.5%
38. CC(NC(=S)NC(=O)c1ccccc1)c1ccccc1 (stereo not drawn)  10.5%
39. CCOc1cccc(N2C(=O)/C(=C/c3ccco3)C(=O)NC2=S)c1  10.4%
40. COc1cccc(C(=O)Nc2ccc3c(c2)CCCN3C(=O)c2cccs2)c1OC  10.3%
41. Cc1cc(C)n(CCCNC(=O)Cn2nnnc2CN2C[C@@H](C)O[C@@H](C)C2)n1  10.3%
42. CCCc1cc(NCc2ccccn2)n2nc(C)c(-c3ccccc3)c2n1  10.1%
43. Cc1cc(C)c(NC(=O)Cn2cc3c(n2)CCCC3)c(C)c1  10%
44. O=C(NC1CCCC1)C(c1ccccc1)N(C(=O)c1ccco1)C1CCCC1 (stereo not drawn)  10%
45. COc1cc(CNCc2ccc(C(=O)O)cc2)ccc1OCc1ccc(F)cc1.Cl  9.76%
46. COC(=O)[C@@]12CCCCN1[C@H](c1ccc(-c3cc(C(C)=O)cs3)cc1)[C@H]1C(=O)N(C)C(=O)[C@H]12.O=C(O)C(F)(F)F  9.68%
47. c1ccc(OCCOc2ncnc3sccc23)cc1  9.61%
48. CC(=O)Cn1c(=O)c2c(nc3n2CCCN3Cc2ccccc2)n(C)c1=O  9.57%
49. Cc1cc(C)cc(OCC(=O)NNC(=O)c2ccoc2C)c1  9.44%
50. COc1cc(/C=N/NC(=O)CCn2c3ccccc3c3ccccc32)cc(OC)c1OC  9.14%
51. COCCOC1CCN(C(=O)C2CCC(=O)N(CCc3cccc(F)c3)C2)CC1 (stereo not drawn)  8.72%
52. CCOc1cc(C2NC(=O)N(C)C(C)=C2[N+](=O)[O-])ccc1OC(C)=O (stereo not drawn)  8.47%
53. Cn1ccc(CC(=O)N2CCC(N3CCC(C(=O)N4CCCC4)CC3)CC2)c1  8.28%
54. O=C(O)C1CC(=O)N(c2ccc(F)cc2)C1 (stereo not drawn)  8.22%
55. CCOC(=O)C(=CNCC(=O)OC)C(=O)OCC  8.02%
56. CCN(CC(=O)Nc1ccc(OC)cc1)C(=O)c1ccc2c(c1)NC(=O)C(C)S2 (stereo not drawn)  7.69%
57. CCCCN(C(=O)CCC(=O)Nc1cc(C)on1)C(C(=O)NC(C)(C)CC)c1cccc(OC)c1OC (stereo not drawn)  6.77%
58. O=c1c2cc(-c3ccccc3)sc2nc2n1CCC2  6.69%
59. Cc1ccc(NC(=O)CCNS(=O)(=O)c2cccc3nonc23)cc1  6.65%
60. CCOc1ccccc1Nc1nnc(SCC(=O)Nc2nc(-c3ccc(OC)cc3)cs2)s1  6%
61. CC(C)(C)C1(C)OC(=O)C(=Cc2ccc(OCC(=O)Nc3ccccc3)cc2)C(=O)O1 (stereo not drawn)  5.84%
62. O=C1NC(c2cccs2)Nc2ccccc21 (stereo not drawn)  5.75%
63. O=C(NCc1cccs1)c1cccnc1Cl  5.45%
64. O=C(Nc1ccccc1)ON=C1CCCC1  3.73%
65. CCN(C(=O)Cc1c(C(=O)O)[nH]c2ccccc12)c1cc(OC)ccc1OC  3.47%
66. Cc1ccc(S(=O)(=O)NCC(=O)OCC(=O)Nc2ccc3c(c2)OCCO3)cc1  2.12%
67. CC(=O)N1CCN(C(=O)CSc2nc3c(cnn3-c3ccccc3)c(=O)[nH]2)CC1  1.79%
68. O=C(CNCc1cccs1)Nc1cc(S(=O)(=O)N2CCCC2)ccc1Cl  1.29%
69. c1ccc(Cn2nnnc2C(c2cccnc2)N2CCN(c3ccccc3)CC2)cc1 (stereo not drawn)  1.03%
70. CSc1ccc(Cn2nnc(C(=O)NCc3ccccc3)c2N)cc1  0.777%
71. COC(=O)c1cc(F)c(-n2cncn2)c(F)c1  0.768%
72. COC(=O)c1c(NC(=O)C2CC=CCC2C(=O)O)sc(C)c1C (stereo not drawn)  0.631%
73. CCOC(=O)Cn1c(CN(Cc2ccccc2)Cc2ccccc2)nc2c1c(=O)n(C)c(=O)n2C  0.492%
74. O=C(NCCC1=CCCCC1)C1CC(=O)N(C2CCCCC2)C1 (stereo not drawn)  0.327%
75. O=C(CNC(=O)c1cccc(Cl)c1)NCC(c1cccs1)N1CCOCC1 (stereo not drawn)  0.315%
76. CCCCN(Cc1cccs1)S(=O)(=O)c1csc(C(N)=O)c1  -0.0485%
77. COCCCn1c(SCC(=O)N2CCc3ccccc32)nnc1-c1ccoc1C  -0.137%
78. Cc1ccc(OCC(=O)Nc2cccc(-c3nnc(-c4ccccc4)o3)c2)c(C)c1  -2.15%
79. COC(=O)c1ccccc1NC(=O)N1CCN(C(=O)c2ccco2)CC1  -2.84%
80. CCOc1ccc(C(=O)N/N=C(\c2ccccc2)c2ccccn2)cc1  -6.27%
81. CCCOC(=O)Nc1nnc(CCC)s1  -6.5%
82. C=CCNC(=O)c1c2c(nc3ccccc13)-c1ccccc1CC2  -13.3%
83. O=C(Nc1ccc([N+](=O)[O-])cc1)/C(=C/c1cccc([N+](=O)[O-])c1)NC(=O)C1CCCCC1  -18.8%
84. CS/C(N)=N/N=C/c1ccc([N+](=O)[O-])cc1.I  -19.7%
85. CCCSc1nnc2n(C)c(=O)c3c4c(sc3n12)CCC4  -32.7%
86. O=C(CN1CCC(c2nc3ccccc3s2)CC1)NCc1ccccc1  -44.6%
87. COc1ccccc1N1CCN(C(=O)CCCN2C(=O)c3cccc4cccc(c34)C2=O)CC1.Cl  -89.5%
